# Experimental data from the supplement of paper PMC3334620.
# In all, about 33,000 sequences were measured (“E-score (-0.5 to 0.5)”: median about -0.01, highest 2% from about 0.26 on). This is one part of the list.
# Molecular target: Ste12 (UniProt P13574)
# Experiment: PBM E-score (8-mer binding enrichment) (E-score (-0.5 to 0.5)); higher = stronger / more preferred TF binding; most listed sequences are background and not binding sites
# Settings: protein concentration: 200 nM; construct: GST-DNA-binding domain
# How it was run: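 Bound GST-tagged yeast transcription factors, applied at about 100-200 nM to double-stranded universal all-10-mer Agilent arrays, were detected with fluorescent anti-GST. Scans were normalised with masliner. A modified Wilcoxon-Mann-Whitney statistic, the E-score, was assigned to each ungapped eight-base word pooled with its reverse complement by the Universal PBM Analysis Suite.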
row,Sequence,PBM E-score
1,GTTTGTCA,0.0464
2,ATGCCTAC,-0.19
3,AGAATTAG,0.177
4,AACCTGCT,0.0136
5,CCGCGCTC,0.051
6,CATTTACG,-0.044
7,ATCGTTAG,0.00868
8,AATCGAGA,0.0678
9,ATGCGAAC,-0.0082
10,GGTCTTTA,0.0687
11,ATGCGTTA,0.0391
12,GAATCGCA,-0.0334
13,CGTAGCGC,-0.104
14,GCTTCTTA,-0.035
15,CGTAGTAG,-0.151
16,ATTTCGAG,0.146
17,ATACGGAG,-0.0967
18,AATAGCAA,0.00204
19,AGGGGCAG,-0.0336
20,ACAAGACA,0.187
21,ACCGATAC,-0.0196
22,GCCGTAGA,-0.0722
23,GGTAAGTA,0.02
24,AAAAGCAA,0.135
25,ATCCCGAC,0.119

row,Sequence,PBM E-score
1,ATTGGTAG,-0.0808
2,GTCAGGTA,0.0732
3,ATAGAGCA,0.0229
4,CGTAAACA,0.186
5,GTATGTGA,0.0194
6,GACGTAGC,-0.254
7,ACGCTACG,-0.231
8,CTGTCCTC,-0.215
9,CATATGTA,0.0691
10,CTACTTCC,-0.00174
11,TAGTGATA,-0.126
12,CGAGGTAC,-0.0522
13,AAATGGGC,0.0167
14,ATATTCTA,0.183
15,AGCTGACG,-0.126
16,GGACCAAC,-0.203
17,CGACATGA,0.0321
18,TAGCTTCA,-0.183
19,CTTCATTA,0.136
20,ATTTAAGC,0.214
21,CGAATCCA,0.0639
22,TGTATACA,-0.112
23,GTGCATTA,-0.0593
24,GCAGCCTA,-0.177
25,AGAGAATA,0.0624

row,Sequence,PBM E-score
1,AAACATTG,0.229
2,AGTAATTC,0.0643
3,AGTCGAGC,-0.233
4,CACATCGG,0.0461
5,GGCACCTA,-0.0649
6,AGCATCTA,0.0183
7,AATAAGGG,-0.0431
8,CTATCCAA,-0.137
9,AACATCGG,0.121
10,TCCCTTCA,-0.0551
11,ACACCCAG,-0.0755
12,CTCAATAC,0.184
13,GTTCATGA,0.0856
14,AGCAGAAA,0.15
15,ATGCTCAG,-0.0728
16,AGAGATGA,0.0335
17,AGCGCATG,-0.00165
18,CATTAGCG,0.0204
19,TAGTCCCA,-0.139
20,GATTCCTA,0.019
21,ACTAGAAA,0.244
22,AACCCAAC,0.175
23,ATGAAGCA,-0.0547
24,ACTTTGAC,-0.101
25,CAACACCA,-0.167

row,Sequence,PBM E-score
1,GGTGATGA,0.0671
2,TACGAGCA,-0.108
3,GGAGATGA,-0.0923
4,AAACGAAC,0.103
5,CGCTACCA,-0.0682
6,ACAAACAC,0.266
7,GTTGCTGA,-0.0566
8,CCTTTTCC,0.0263
9,AACCAGCG,-0.0325
10,AGGGATAC,-0.227
11,GGTCAACA,0.0377
12,CATTTTGC,0.178
13,CATCAACC,0.0722
14,GCTGGTAA,-0.0346
15,CGGCATCA,0.0216
16,AGTCGGAT,0.05
17,CGCTATGA,-0.0983
18,ATGCTAGG,-0.152
19,CTCGAGAA,-0.00898
20,AGTAGTTA,-0.12
21,GTAAAACA,0.323
22,CGGCGTCC,-0.0783
23,CGAGCCCA,-0.159
24,AGTCGCCC,-0.197
25,ACCGCTAC,0.0074

row,Sequence,PBM E-score
1,TATAAAAA,0.27
2,AGAGGTAG,-0.117
3,AAGTCATT,-0.135
4,CAATGAGC,-0.115
5,AAGTACTA,0.0588
6,AATGACGT,-0.0516
7,ATAGCTAT,-0.174
8,CATCCGCG,0.0961
9,ATTGCGTA,-0.00669
10,AAGTGGCC,-0.136
11,TGATCCAA,0.102
12,CGAGGGTA,-0.0222
13,TAATATGA,0.226
14,ACTATACA,-0.0333
15,ACAGCTTA,0.0118
16,CTTGAAGA,-0.0011
17,CGTAATGA,0.0351
18,ATAAGGAT,0.234
19,GCCTACAC,-0.00985
20,CTGCGGGA,-0.13
21,ATTCGTGG,0.0399
22,AGCTCGCC,-0.0858
23,GCATCACA,-0.0108
24,GTCTTGCA,0.0305
25,AATCTACT,0.2

row,Sequence,PBM E-score
1,GCATCGAA,-0.114
2,ACGTGAGC,-0.148
3,AGACCGTG,-0.121
4,TAGGACGA,-0.101
5,CCGACCGC,-0.169
6,TAACATCA,0.126
7,ACCCAGGG,-0.161
8,GAATCCGC,-0.157
9,ACGCGTCA,0.0117
10,GTCTGACA,-0.056
11,ATACCGTC,0.0412
12,AAGTCTCC,-0.213
13,CATGAGCA,-0.145
14,CAATTGTG,0.0226
15,ATGCATGA,-0.00341
16,CTAGACTC,-0.303
17,AAGCCTAA,0.067
18,CGGCGCCG,0.0421
19,TAAACTCA,0.113
20,CGAGTCAA,-0.155
21,CGCAGATC,-0.142
22,CGACTACG,-0.159
23,CTGATACA,0.28
24,AGCCACAC,0.0621
25,AAACTCAT,0.261

row,Sequence,PBM E-score
1,AACTCTCC,-0.129
2,AGACATGC,-0.103
3,AGGTGCAT,-0.0738
4,CAGCTGTC,-0.0754
5,GCTACCAC,-0.152
6,AACACCGA,-0.0548
7,AAGGGGTA,0.0162
8,TGCGTGAA,0.0739
9,CGAAACAG,0.244
10,ATGAAGGA,0.0677
11,ACCTCGCG,-0.259
12,CTCTTTGA,-0.037
13,GCCACCCA,-0.106
14,ATCAATTG,0.154
15,CTGGATGC,-0.106
16,AACTCCTT,-0.00898
17,GAGTCATC,-0.0404
18,ACCTACCG,-0.137
19,CGCTGAAG,-0.0522
20,CCGTTGCA,0.0898
21,ACGTGCAG,0.103
22,GTTATGAA,0.221
